In the supplement of paper PMC11060735:
Values joined by “and” are separate entries in the source; they are usually repeats but may differ in a detail not shown here. Equal entries are not always repeated. Structures can show the parent of a compound that is named as a salt. Screen size: about 1,800 compounds; about 50 (3%) showed activity. The list shows a part of the results.

These compounds were tested on mouse p16Ink4a+/- lung fibroblasts (INKBRITE, bleomycin-injured) (assay: percentage of GFP+ (p16Ink4a+) fibroblasts among all cells in well; higher = less depletion of p16Ink4a+ cells, active = 20 or less). Conditions: 1 µM; 3 days.
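Further: fibroblasts sorted 14 days after bleomycin, GFP+ and GFP− mixed 1:1 in 384-well plates (GFP− as in-well control), imaged after Hoechst and NucView530 staining, reference wells lacked compound.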

SMILES | percentage of GFP+
Cc1ccc2c(c1)C(=O)[C@]1(O)CCN(c3ccccc3)C1=N2 [(S)-blebbistatin] | inactive: 35.5%
O=C(Nc1cccc(Cl)c1)c1ccccn1 | inactive: 50.9%
O=C1NC(=O)/C(=C/c2ccc3nccc(-c4ccncc4)c3c2)S1 | inactive: 33.7%
NC(=O)c1ncn([C@@H]2O[C@H](CO)[C@@H](O)[C@@H]2O)c1O [Mizoribine] | inactive: 36.6%
CS(=O)(=O)N1CCc2c(-c3cnc(N)nc3)nc(N3CCOCC3)nc21 | inactive: 43.5%
Cc1ncc([N+](=O)[O-])n1CC(C)O (stereo not given) [Secnidazole] | inactive: 39.1%
C[C@@H]1O[C@@H](O[C@H]2[C@H](Oc3cc(O)c(C(=O)CCc4ccc(O)cc4)c(O)c3)O[C@H](CO)[C@@H](O)[C@@H]2O)[C@H](O)[C@H](O)[C@H]1O [Naringin Dihydrochalcone] | inactive: 41.7%
C[C@@H](CN1CC(=O)NC(=O)C1)N1CC(=O)NC(=O)C1 [Dexrazoxane] | inactive: 37.4%
O=C1c2c(O)cccc2[C@H]([C@@H]2O[C@H](CO)[C@@H](O)[C@H](O)[C@H]2O)c2cc(CO)cc(O)c21 [Aloin] | inactive: 20.8%
COc1ccc(-c2ccc3c(N4CCOC[C@@H]4C)nc(N4CCOC[C@@H]4C)nc3n2)cc1CO | inactive: 40.4%
c1cnc2cc3c(cc2n1)C1CNCC3C1 [Varenicline Tartrate] | inactive: 49.1%
CC1CNc2c(cccc2S(=O)(=O)N[C@@H](CCCN=C(N)N)C(=O)N2CC[C@@H](C)C[C@@H]2C(=O)O)C1 (stereo not given in full) [Argatroban] | inactive: 38.9%
C[C@]12CC[C@H](O)CC1=CCC1C2CC[C@]2(C)C(n3cnc4ccccc43)=CCC12 (stereo not given in full) [Galeterone] | inactive: 38.1%
C[C@H](CCC(=O)O)[C@H]1CC[C@H]2[C@@H]3C[C@H](O)[C@@H]4C[C@H](O)CC[C@]4(C)[C@H]3CC[C@]12C [Hyodeoxycholic acid (HDCA)] | inactive: 46.4%
CCN1CC(CCN2CCOCC2)C(c2ccccc2)(c2ccccc2)C1=O (stereo not given) [Doxapram] | inactive: 44%
N=C(N)NS(=O)(=O)c1ccc(N)cc1 [Sulfaguanidine] | inactive: 50.6%
CNC(=O)c1cc(Oc2ccc(NC(=O)Nc3cc(C(C)(C)C)nn3-c3ccc4ncccc4c3)c(F)c2)ccn1 [Rebastinib] | inactive: 39.9%
CC1=CC(=O)c2ccccc2C1=O [Menadione] | inactive: 46.8%
CCS(=O)(=O)c1cccc(-c2cc(C(=O)NC3CCN(C)CC3)c(C)c3[nH]c4ncc(C)cc4c23)c1 | inactive: 42.7%
COc1cc(N2CCC(N3CCN(C)CC3)CC2)ccc1Nc1ncc(Cl)c(Nc2ccccc2S(=O)(=O)C(C)C)n1 | inactive: 45.9%
O=C(c1ccccc1)c1ccc2n1CCC2C(=O)O (stereo not given) [Ketorolac] | inactive: 38.6%
O=C(NCCS(=O)(=O)c1ccc(C(F)(F)F)cn1)c1ccc(Cl)cc1 | inactive: 49.6%
CNC1CCCN(c2c(F)cc3c(=O)c(C(=O)O)cn(C4CC4)c3c2OC)C1 (stereo not given) [Balofloxacin] | inactive: 49.5%
C/C(O)=C(\C#N)C(=O)Nc1ccc(C(F)(F)F)cc1 [Teriflunomide] | inactive: 47%

SMILES | percentage of GFP+
CCOc1cc2ncc(C#N)c(Nc3ccc(F)c(Cl)c3)c2cc1NC(=O)/C=C/CN(C)C [Pelitinib] | inactive: 39.4%
Cc1cc(Cn2cnc3c2C[C@@H](C(=O)O)N(C(=O)C(c2ccccc2)c2ccccc2)C3)ccc1N(C)C | inactive: 40.8%
NS(=O)(=O)C#Cc1ccccc1 [Pifithrin] | inactive: 23.9%
CN1CCc2c(c3ccccc3n2Cc2ccc(C(=O)NO)cc2)C1 [Tubastatin A HCl] | inactive: 53.9% and inactive: 45%
C[C@@H]1CCN(C(=O)CC#N)C[C@@H]1N(C)c1ncnc2[nH]ccc12 [Tofacitinib] | inactive: 49.8% and inactive: 57.7%
CNC(=O)c1ccc(C)c(-n2c(C)cc(OCc3ccc(F)cc3F)c(Br)c2=O)c1 | inactive: 54.9%
Oc1nc(-c2ccc(C(F)(F)F)cc2)nc2c1CSCC2 | inactive: 50.6%
Cc1coc2c1C(=O)C(=O)c1c-2ccc2c1CCCC2(C)C [Tanshinone IIA] | inactive: 33.7%
NC1(c2ccc(-c3nc4ccn5c(O)nnc5c4cc3-c3ccccc3)cc2)CCC1 | inactive: 38.8%
CCN1CCN(Cc2ccc(-c3cc4c(N[C@H](C)c5ccccc5)ncnc4[nH]3)cc2)CC1 | inactive: 45.5%
COc1cc(Br)c(Nc2nc(-c3c(C)nc4ncccn34)cs2)c(Br)c1 | inactive: 26.7%
CN1CCN2c3ncccc3Cc3ccccc3C2C1 (stereo not given) [Mirtazapine] | inactive: 50.3%
OC[C@H]1O[C@@H](n2cnc3c(O)ncnc32)[C@H](O)[C@@H]1O [Inosine] | inactive: 47.7%
CC1=NC(N)=C(C(=O)OC2CN(C(c3ccccc3)c3ccccc3)C2)C(c2cccc([N+](=O)[O-])c2)/C1=C(/O)OC(C)C (stereo not given) [Azelnidipine] | inactive: 42.5%
C=CCc1ccc(O)c(-c2cc(CC=C)ccc2O)c1 [Magnolol] | inactive: 44.7%
CC1=NN(c2ccc(C(=O)O)cc2)C(=O)/C1=C\c1ccc(-c2cc(C)c(C)cc2[N+](=O)[O-])o1 | inactive: 40.6%
CC(C)c1cc(-c2nnc(O)n2-c2ccc3c(ccn3C)c2)c(O)cc1O [Ganetespib] | active: 4.48%
C#CCC(Cc1cnc2nc(N)nc(N)c2n1)c1ccc(C(=O)N[C@@H](CCC(=O)O)C(=O)O)cc1 (stereo not given in full) [Pralatrexate] | inactive: 40.7%
CC(=O)OCC(=O)[C@@]12OC(C)(C)O[C@@H]1C[C@H]1[C@@H]3C[C@H](F)C4=CC(=O)C=C[C@]4(C)[C@@]3(F)[C@@H](O)C[C@@]12C [Fluocinonide] | inactive: 33.9%
CO/N=C(\C(=O)N[C@@H]1C(=O)N2C(C(=O)OCOC(=O)C(C)(C)C)=C(/C=C\c3scnc3C)CS[C@H]12)c1csc(N)n1 [Cefditoren Pivoxil] | inactive: 58.9%
CCCC(=O)Nc1cccc(NC(=O)c2ccccc2Br)c1 | inactive: 51.2%
COc1cc2ncnc(Nc3ccc(O)c(Br)c3)c2cc1OC | inactive: 50.3%
CNC(=O)[C@H](Cc1ccccc1)NC(=O)[C@H](CC(C)C)[C@H](CSc1cccs1)C(=O)NO [Batimastat] | inactive: 41.9%
COc1ccc(S(=O)(=O)N(C(C)=O)c2ccccc2/C=C/c2cc[n+]([O-])cc2)cc1 | inactive: 31.6%

SMILES | percentage of GFP+
Cn1cncc1[C@@](N)(c1ccc(Cl)cc1)c1ccc2c(c1)c(-c1cccc(Cl)c1)cc(=O)n2C [Tipifarnib] | inactive: 47.1%
COc1ccc2ccc(=O)oc2c1CC=C(C)C [Osthol] | inactive: 40.1%
Cc1cc(C(C)(C)C)cc(C)c1CC1=NCCN1 [Xylometazoline] | inactive: 40.3%
Cc1cc(F)c(Nc2ncnc3cc(OCc4ccccc4)ccc23)cc1O | inactive: 37.9%
NS(=O)(=O)c1ccc(NC(=O)Nc2ccc(F)cc2)cc1 | inactive: 43%
Cn1cc(-c2ccc3nnc(C(F)(F)c4ccc5ncccc5c4)n3n2)cn1 | inactive: 45.4%
Cc1cc(Nc2cc(N3CCN(C)CC3)nc(/C=C/c3ccccc3)n2)n[nH]1 | inactive: 40.7%
COc1cc(NS(=O)(=O)c2ccc(N)cc2)nc(OC)n1 [Sulfadimethoxine] | inactive: 42.5%
COc1ccnc2[nH]cc(C(=O)C(=O)N3CCN(C(=O)c4ccccc4)C[C@H]3C)c12 | inactive: 47.8%
O=S(=O)(c1ccccc1)N(CC(F)(F)F)c1ccc(C(O)(C(F)(F)F)C(F)(F)F)cc1 | inactive: 47%
Cc1cccc(-c2[nH]ncc2-c2ccc3ncccc3n2)n1 | inactive: 42.3%
CN[C@@H](C)C(=O)N[C@H](C(=O)N1CCC[C@H]1C(=O)Nc1snnc1-c1ccccc1)C1CCCCC1 | inactive: 21.9%
COC(=O)CCSCc1ccc(-c2onc(C)c2NC(=O)OC(C)c2ccccc2Cl)cc1 (stereo not given) | inactive: 43.9%
CCCCNc1ccc(C(=O)OCCN(C)C)cc1 [Tetracaine] | inactive: 34.1%
CC(=O)O[C@H]1C[C@@H]2CC[C@@H]3[C@H](CC[C@@]4(C)[C@H]3C[C@H]([N+]3(C)CCCCC3)[C@@H]4OC(C)=O)[C@@]2(C)C[C@@H]1N1CCCCC1 [Vecuronium] | inactive: 47%
CNCc1ccc(C)c(NC(=O)c2ccc(Nc3nc(-c4ccccc4)c4ccccc4n3)cc2)c1 | inactive: 47.4%
C#C[C@]1(O)CC[C@H]2[C@@H]3CCC4=CC(=O)CC[C@@H]4[C@H]3CC[C@@]21CC [Levonorgestrel] | inactive: 39.7%
COc1cc(/C=C/C(=O)N2CCN(CC(=O)N3CCCC3)CC2)cc(OC)c1OC [Cinepazide maleate] | inactive: 45.4%
COc1cccc2c1C(=O)c1c(O)c3c(c(O)c1C2=O)C[C@@](O)(C(=O)CO)C[C@@H]3O[C@H]1C[C@H](N)[C@H](O[C@@H]2CCCCO2)[C@H](C)O1 [Pirarubicin] | inactive: 24%
CC(C)c1nc(N(C)S(C)(=O)=O)nc(-c2ccc(F)cc2)c1/C=C/[C@@H](O)C[C@@H](O)CC(=O)O [Rosuvastatin, Rosuvastatin Calcium] | inactive: 41.7%
NC(=O)c1cnc(N[C@@H]2CCCC[C@H]2N)nc1Nc1cccc(-n2nccn2)c1 | inactive: 49.5%
O=C(Nc1cccc(Nc2ncc(Br)c(NCCc3c[nH]cn3)n2)c1)N1CCCC1 | inactive: 38.5%
